In all, about 33,000 sequences were measured (“E-score (-0.5 to 0.5)”: median about -0.032, highest 2% from about 0.36 on). This is one part of the list.
What follows are sequences tested against T1, Sko1 (UniProt Q02100) (assay: PBM E-score (8-mer binding enrichment) (E-score (-0.5 to 0.5)); higher = stronger / more preferred TF binding; most listed sequences are background and not binding sites). Conditions: protein concentration: 200 nM; construct: GST-full length.
T1 sequence: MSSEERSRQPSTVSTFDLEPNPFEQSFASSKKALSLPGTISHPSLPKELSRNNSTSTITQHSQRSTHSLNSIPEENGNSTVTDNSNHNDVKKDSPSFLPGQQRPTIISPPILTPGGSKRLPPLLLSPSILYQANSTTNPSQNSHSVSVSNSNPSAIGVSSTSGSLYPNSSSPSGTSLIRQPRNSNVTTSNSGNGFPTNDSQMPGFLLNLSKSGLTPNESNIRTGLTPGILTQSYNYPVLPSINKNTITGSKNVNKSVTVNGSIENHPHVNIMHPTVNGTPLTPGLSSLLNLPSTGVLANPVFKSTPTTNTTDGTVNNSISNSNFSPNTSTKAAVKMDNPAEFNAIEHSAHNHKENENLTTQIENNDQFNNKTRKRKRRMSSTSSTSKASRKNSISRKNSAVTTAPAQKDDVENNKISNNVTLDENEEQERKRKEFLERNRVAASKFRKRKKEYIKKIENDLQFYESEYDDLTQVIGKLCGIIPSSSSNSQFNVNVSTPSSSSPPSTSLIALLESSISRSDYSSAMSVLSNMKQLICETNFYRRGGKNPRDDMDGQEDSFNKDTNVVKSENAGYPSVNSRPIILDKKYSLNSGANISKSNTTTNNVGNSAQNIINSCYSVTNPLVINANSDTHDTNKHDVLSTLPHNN
Outline: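 The E-score, a modified Wilcoxon-Mann-Whitney statistic, was computed by the Universal PBM Analysis Suite for every ungapped eight-base word pooled with its reverse complement. Scans behind it were normalised with masliner after bound GST-tagged yeast transcription factors were detected with fluorescent anti-GST. The proteins, at about 100-200 nM, had been applied to universal all-10-mer Agilent arrays made double-stranded by primer extension.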

In order of falling “PBM E-score” value:
1. ACGTCTTG  0.39
2. AATGGCGT  0.387
3. ACGTCGTG  0.361
4. ACATTCTA  0.293
5. GAGTATGA  0.291
6. TAATTATA  0.285
7. GATTTATA  0.252
8. ATGTGTCA  0.216
9. CATTATGA  0.214
10. GACATAGC  0.199
11. GTACCTAA  0.199
12. GAGTACTA  0.191
13. AACATACA  0.189
14. ATATAGTA  0.176
15. GATTTTAC  0.173
16. GCTAACGA  0.171
17. CGCACTAC  0.164
18. ATCGCACG  0.157
19. CTAATAGA  0.15
20. AAGTAGAA  0.148
21. AACCAAGA  0.14
22. CATTCTAC  0.138
23. AGTTGAAT  0.135
24. AAGGCACG  0.132
25. CGTAGCTA  0.132
26. AATAATCC  0.126
27. ACTATTGA  0.123
28. AACGTTGG  0.118
29. AAACGTTG  0.112
30. GTAGGCAA  0.108
31. ACTCTGAC  0.107
32. ACTCATCG  0.104
33. ATTTTTTG  0.102
34. TGCACTAA  0.0994
35. GACGAAGC  0.0937
36. ATAAGTCG  0.0932
37. CTGAATAA  0.0914
38. CACATATG  0.0908
39. CCCAAAAC  0.0905
40. AACTTACA  0.0844
41. CGTGTCCC  0.0809
42. ATCGCTTA  0.0739
43. GTCGTTAA  0.0709
44. GGAACGAC  0.0688
45. CTGACTAA  0.0646
46. CGACTACA  0.0639
47. CATCTTTC  0.0611
48. ATCAGTTG  0.06
49. CGAAATAG  0.0567
50. CGTGCGCC  0.0565
51. CACGCTCA  0.0513
52. AACGACTT  0.0437
53. TATCCACA  0.0418
54. ATTGTTGG  0.0374
55. CTGATATA  0.0369
56. GCAAGCGA  0.0365
57. CTCCACAA  0.0357
58. CGGTAGCC  0.0295
59. GACGGATA  0.0281
60. CCCCTACG  0.0246
61. AGTGGCAA  0.0246
62. ACCCGCCC  0.0231
63. AATTTCTC  0.0228
64. ACCGTGCG  0.0174
65. GCGGATAC  0.014
66. CCAATAGA  0.0131
67. GATCTTGC  0.0122
68. GCGCTACA  0.0112
69. GACTACCA  0.011
70. CGGCTTAA  0.0088
71. GATCTACC  0.00412
72. ACATGAGT  0.00372
73. CAGTACTA  -0.00068
74. TCTGCGCA  -0.00414
75. AAGGGATA  -0.00728
76. CTCATAAG  -0.0156
77. CCTATATC  -0.0162
78. AAGTAAGA  -0.0186
79. AGCGTATG  -0.0197
80. CTATGGAC  -0.0203
81. AAGCGCGA  -0.0206
82. CATAAATG  -0.0208
83. CCCCACAG  -0.0219
84. CGTCCGAC  -0.0238
85. AGTTTCCA  -0.0256
86. AATTCCTC  -0.0266
87. AACCGTGC  -0.0296
88. CTGTATCA  -0.0332
89. CCGGGTAA  -0.035
90. CTGAAAGC  -0.0367
91. CTCGAAGC  -0.0451
92. AATAGACT  -0.0457
93. GTTCCTCA  -0.0514
94. CAATACTA  -0.0518
95. CGATACCA  -0.0529
96. GTCGTGGA  -0.0552
97. AGCACATC  -0.058
98. CCGTGTAC  -0.0602
99. CACCAAGA  -0.0669
100. ATTGGTCC  -0.0697
101. CAGTTCGA  -0.0737
102. AAATTCCC  -0.0767
103. ATGTGCGA  -0.0772
104. AGCCCCTC  -0.0826
105. AGTGGGAA  -0.0872
106. ACAATCCT  -0.0906
107. CTTAGAAG  -0.096
108. GACAGGAC  -0.0971
109. ACACCCAT  -0.101
110. AGATTCGG  -0.102
111. CACTCTGA  -0.102
112. CAAGGATA  -0.108
113. CACGGTAG  -0.109
114. GCCCAAAA  -0.115
115. GAGCGATC  -0.116
116. CAGCTCGC  -0.116
117. GAAGAATC  -0.116
118. AGGAGACT  -0.117
119. AGCACTAG  -0.12
120. CGACAACC  -0.127
121. AGCAATAG  -0.127
122. AACTCTGG  -0.133
123. ATGGACTG  -0.134
124. ACCACTTG  -0.137
125. TCGGCAAA  -0.139
126. GGGTATAA  -0.141
127. CACTAGTG  -0.143
128. CTGGCTAC  -0.146
129. AGCCAGAC  -0.148
130. AAATGTCC  -0.148
131. CCAGCTTC  -0.149
132. GGGGGTAC  -0.149
133. AACCCTGC  -0.156
134. AGCAAAGA  -0.159
135. CTAAAGGA  -0.16
136. AGAGGTAC  -0.162
137. CAGTCATG  -0.17
138. ACTTGAGC  -0.172
139. AGTGGATA  -0.181
140. CTTCCATC  -0.197
141. ATCGGGGC  -0.199
142. ATGGCGGA  -0.2
143. CGACCAGA  -0.204
144. ACCAAGGA  -0.204
145. GAAATTTC  -0.206
146. GACTCCTA  -0.212
147. TCCGATAA  -0.216
148. ATTGCTGG  -0.219
149. TCCACCAA  -0.222
150. AGAGGCTA  -0.236
151. AAAGAGCT  -0.238
152. GGGTAGGA  -0.24
153. GGCGAAGA  -0.244
154. AGACGGGG  -0.247
155. AGGACCGC  -0.257
156. GAGGCTGC  -0.261
157. GGCCAGGA  -0.265
158. AACCCTCC  -0.265
159. GCCGCGAA  -0.268
160. CGAGCCCC  -0.269
161. ACCAGGAG  -0.281
162. CCCGGGTA  -0.282
163. ATAACCCC  -0.295
164. CGGGGGAG  -0.296
165. AGCATCGC  -0.298
166. CGGGCTGC  -0.301
167. ACAAGACC  -0.304
168. CCGAACGG  -0.329
169. AGCTATAG  -0.335
170. ACTCTCCC  -0.339
171. CATCCCCC  -0.395
172. GGGGGATA  -0.433
